Experimental data published in the supplement of paper PMC9446081.
The whole screen tested about 39,000 compounds, of which about 220 (0.56%) showed activity. The list shows a part of the results.

Test system: Escherichia coli K-12 BW25113
Assay: relative growth (OD600 normalised to plate interquartile mean) (fraction); higher = less growth inhibition, active = 0.2 or less
Details: 50 µM; LB; incubation time: overnight (16-24 h)
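Also: static incubation at 37 °C against the wild-type strain, values averaged over two biological replicates.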

SMILES	relative growth
COC(=O)c1c(C)cc(OC)cc1O	inactive: 0.904
C[C@@H]1CN([C@@H](C)CO)C(=O)c2cccc(NS(=O)(=O)c3ccccc3)c2O[C@@H]1CN(C)Cc1ccc(Oc2ccccc2)cc1	inactive: 0.977
NC(=O)NCC#Cc1ccc2c(c1)[C@]1(C(=O)N2)[C@H](c2ccc(OCCO)cc2)N2[C@H](c3ccccc3)[C@H](c3ccccc3)OC(=O)[C@H]2[C@@H]1C(N)=O	inactive: 1.04
NC[C@H](O)c1ccc(O)c(O)c1	inactive: 1
COC(=O)[C@@H]1[C@@H](c2ccc(OC)cc2)[C@H](C(=O)OC)S(=O)(=O)CS1(=O)=O	inactive: 1.01
C[C@@H]1CCCCO[C@H](CN(C)C(=O)C2CCCCC2)[C@H](C)CN([C@H](C)CO)C(=O)c2cc(NC(=O)c3ccccc3)ccc2O1	inactive: 1.02
C=CCn1c(=O)c2c(OC)ccnc2n(C)c1=O	inactive: 0.997
CN(C)CCOc1c(Br)cc(/C=C/C(=O)NCCCOc2c(Br)cc(CCN(C)C)cc2Br)cc1Br	inactive: 0.991
O=C(C[C@@H]1C=C[C@@H](NC(=O)c2ccncc2)[C@H](CO)O1)NCc1ccncn1	inactive: 1
CCOC(=O)C1CCN(C)CC1	inactive: 1.01
C=C1c2cccc(O)c2C(=O)C2=C(O)C3(O)C(=O)C(C(N)=O)=C(O)C(N(C)C)C3C(O)C12.Cl (stereo not drawn)	active: 0.0546
CC(C)(C)[S@](=O)N1Cc2cc(C(=O)NCCc3ccncc3)nc(-c3cccc(-c4ccc(C#N)cc4)c3)c2[C@@H]1CCO	inactive: 1
CCS(=O)(=O)N[C@H]1C=C[C@@H](CC(=O)O)O[C@@H]1CO	inactive: 0.983
Cc1noc(C)c1NC(=O)Nc1ccc2c(c1)C(=O)N([C@H](C)CO)C[C@@H](C)[C@H](CN(C)Cc1ccccc1)OCCCC[C@H](C)O2	inactive: 1.01
C[C@H]1CN([C@@H](C)CO)S(=O)(=O)c2ccc(Br)cc2O[C@H]1CN(C)C(=O)c1ccccc1F	inactive: 0.996
O=C(CN1CCOCC1)NCC[C@@H]1CC[C@H](NC(=O)Cc2ccccn2)[C@H](CO)O1	inactive: 0.995
C[C@H](CO)N1C[C@H](C)[C@H](CN(C)C(=O)Nc2cccc3ccccc23)Oc2ncc(-c3ccccc3)cc2C1=O	inactive: 1
C[C@@H]1CN([C@@H](C)CO)S(=O)(=O)c2ccc(C3=CCCC3)cc2O[C@@H]1CN(C)C(=O)c1cnccn1	inactive: 0.988
CN(C)CCCCNC(=O)[C@H]1C[C@H]2C(=O)NCC(=O)N2[C@H]1c1cccc(OCCO)c1	inactive: 1
CC(C)(C)OC(=O)C[C@H]1CC=CC[C@@H](CC(=O)N[C@@H](CO)Cc2ccccc2)C(=O)N[C@@H](C(C)(C)C)COC1=O	inactive: 0.999
Nc1nc(Cl)nc(Cl)n1	inactive: 1.02

SMILES	relative growth
C[C@@H]1CN([C@@H](C)CO)C(=O)c2cc(NS(C)(=O)=O)ccc2O[C@@H]1CN(C)C(=O)Nc1ccc(C(F)(F)F)cc1	inactive: 1.05
Cc1noc(C)c1NC(=O)N(C)C[C@@H]1Oc2ccc(NC(=O)Nc3cccc4ccccc34)cc2C(=O)N([C@H](C)CO)C[C@@H]1C	inactive: 1.01
Nn1nnc2ccccc21	inactive: 0.973
C[C@H](CO)N1C[C@H](C)[C@H](CN(C)Cc2ccc(C(=O)O)cc2)Oc2c(NC(=O)c3cnccn3)cccc2C1=O	inactive: 0.984
O=C(O)CC1(n2cnnn2)CCSCC1	inactive: 1
CN(C)CN1C(=O)c2ccccc2C1=O	inactive: 1.01
C[C@H]1CN([C@@H](C)CO)C(=O)c2cc(NC(=O)Cn3cnnn3)ccc2O[C@@H]1CN(C)Cc1ccc(Oc2ccccc2)cc1	inactive: 0.985
C[C@@H]1CN([C@H](C)CO)C(=O)c2cc(NC(=O)c3ccccc3)ccc2O[C@@H](C)CCCCO[C@H]1CN(C)C(=O)NC1CCCCC1	inactive: 0.967
Cc1ccc(S[C@]2(C(=O)NCCN3CCOCC3)CC(=O)N(Cc3cc(C(F)(F)F)cc(C(F)(F)F)c3)[C@@H]2c2ccc(CO)cc2)cc1	inactive: 0.912
COc1ccc(-c2ccc3c(c2)O[C@H](CN(C)CC2CCOCC2)[C@H](C)CN([C@@H](C)CO)S3(=O)=O)cc1	inactive: 0.988
CC(C)=CCC[C@](C)(O[C@@H]1O[C@H](CO[C@@H]2OC[C@@H](O)[C@H](O)[C@H]2O)[C@@H](O)[C@H](O)[C@H]1O)[C@H]1CC[C@]2(C)[C@@H]1[C@H](O)C[C@@H]1[C@@]3(C)CC[C@H](O[C@@H]4O[C@H](CO)[C@@H](O)[C@H](O)[C@H]4O)C(C)(C)[C@@H]3CC[C@]12C	inactive: 0.738
Cc1ccc(S(=O)(=O)N(C)C[C@H]2Oc3c(NC(=O)Nc4ccc(C(F)(F)F)cc4)cccc3C(=O)N([C@@H](C)CO)C[C@@H]2C)cc1	inactive: 0.81
COCC(=O)Nc1ccc2c(c1)C(=O)N(C)C[C@@H](OC)[C@H](C)CN(C(=O)c1ccccc1F)[C@@H](C)CO2	inactive: 1.06
COc1ccc(CN(C)C[C@H]2Oc3ccc(NS(C)(=O)=O)cc3CC(=O)N([C@H](C)CO)C[C@H]2C)cc1	inactive: 0.992
O=C1N(Cc2ccccc2)Cc2ccccc2[C@H]2OC(c3ccc(OCCCO)cc3)=N[C@@]12CCS(=O)(=O)c1ccccc1	inactive: 1.04
C[C@H]1CN([C@@H](C)CO)C(=O)c2cccc(NC(=O)c3cnccn3)c2O[C@H]1CN(C)Cc1ccc2c(c1)OCO2	inactive: 0.989
CO[C@@H]1[C@@H](O)[C@H](O)[C@H](O)[C@H](O)[C@@H]1O	inactive: 0.965
Cc1nn(CC(=O)O)c(=O)c2cccn12	inactive: 1.01
CO[C@@H]1CN(C)C(=O)c2cc(NC(=O)C3CC3)ccc2OC[C@@H](C)N(C(=O)Nc2ccc(C(F)(F)F)cc2)C[C@H]1C	inactive: 0.95
CCOC(=O)[C@H](Cc1ccccc1)NC(=O)Cn1cc(C(=O)NO)nn1	inactive: 1
Cc1noc(C)c1S(=O)(=O)Nc1cccc2c1O[C@@H](CN(C)S(=O)(=O)c1ccc(Cl)cc1)[C@@H](C)CN([C@H](C)CO)C2=O	inactive: 1.01

SMILES	relative growth
COc1ccc(S(=O)(=O)Nc2ccc3c(c2)C(=O)N([C@H](C)CO)C[C@H](C)[C@@H](CN(C)S(=O)(=O)c2ccc(Cl)cc2)OCCCC[C@H](C)O3)cc1	inactive: 1.03
C[C@@H]1CN([C@@H](C)CO)C(=O)c2cc(NC(=O)CCC(F)(F)F)ccc2O[C@@H](C)CCCCO[C@H]1CN(C)CC1CCCCC1	inactive: 0.98
CCc1nc2ccc(C(=O)NCCc3ccccn3)cn2c1N(CC)Cc1cccc(Br)c1	inactive: 1.02
O=C(O)CCCN=C1NC(=O)CC(=O)N1	inactive: 1.02
Cc1ccc(S(=O)(=O)N(C)C[C@H]2Oc3ccc(NS(=O)(=O)c4ccccc4)cc3C(=O)N([C@H](C)CO)C[C@@H]2C)cc1	inactive: 0.987
NC(=O)c1cnc2n(c1=O)CCS2	inactive: 1
COc1ccc(S(=O)(=O)Nc2ccc3c(c2)C(=O)N([C@H](C)CO)C[C@@H](C)[C@H](CN(C)S(=O)(=O)c2ccc(OC)cc2)O3)cc1	inactive: 1
CCOC(=O)C1=C(N)Oc2ccc(Br)cc2[C@H]1[C@H](C#N)C(=O)OCC	inactive: 0.97
Cc1noc(C)c1S(=O)(=O)Nc1ccc2c(c1)CC(=O)N([C@H](C)CO)C[C@@H](C)[C@@H](CN(C)Cc1ccc3c(c1)OCO3)O2	inactive: 0.987
CC(C)(C)OC(=O)C[C@@H]1CC=CC[C@@H](CC(=O)N[C@H](CO)Cc2ccccc2)C(=O)N[C@@H](C(C)(C)C)COC1=O	inactive: 1.01
C[C@@H]1CN([C@@H](C)CO)C(=O)Cc2cc(NC(=O)Nc3ccccc3)ccc2O[C@@H]1CN(C)C(=O)Nc1cccc2ccccc12	inactive: 1.01
COc1ccc(NC(=O)Nc2ccc3c(c2)CC(=O)N([C@H](C)CO)C[C@@H](C)[C@@H](CN(C)Cc2ccc(Cl)c(Cl)c2)O3)cc1	inactive: 1.02
C[C@@H]1CCCCO[C@@H](CN(C)CC2CCCCC2)[C@@H](C)CN([C@@H](C)CO)C(=O)c2cc(NC(=O)CCCN(C)C)ccc2O1	inactive: 0.984
CO[C@@H]1CN(C)C(=O)c2cc(NC(=O)Nc3cccc(F)c3)ccc2OC[C@@H](C)N(C(=O)Nc2c(C)noc2C)C[C@@H]1C	inactive: 0.989
Cc1cccc(CN(C)C[C@@H]2Oc3ncc(-c4cc5ccccc5o4)cc3C(=O)N([C@H](C)CO)C[C@@H]2C)c1	inactive: 0.98
C[C@H](CO)N1C[C@H](C)[C@H](CN(C)C(=O)Nc2cccc3ccccc23)OCCCC[C@H](C)Oc2ccc(NC(=O)Cc3ccccc3)cc2C1=O	inactive: 0.997
CN(C)CCCCCCNC(=O)[C@H]1C[C@H]2C(=O)N[C@@H](CCCC[N+](C)(C)C)C(=O)N2[C@H]1c1cccc(OCCO)c1	inactive: 0.989
C[C@@H]1CN([C@@H](C)CO)C(=O)c2cc(NC(=O)C3CC3)ccc2O[C@@H]1CN(C)Cc1ccc2c(c1)OCO2	inactive: 0.98
Cc1cccc(S(=O)(=O)N2C[C@@H](O)COC[C@H]3O[C@H](CC(=O)NCc4ccncn4)CC[C@@H]32)c1	inactive: 0.97
C[C@@H]1CN([C@@H](C)CO)C(=O)c2cccc(NC(=O)c3cnccn3)c2O[C@H]1CN(C)C(=O)Nc1ccc2c(c1)OCO2	inactive: 0.996
Cc1noc(C)c1NC(=O)Nc1ccc2c(c1)C(=O)N([C@H](C)CO)C[C@@H](C)[C@H](CN(C)C(=O)C1CCCCC1)OCCCC[C@@H](C)O2	inactive: 0.985
